Our source for the self-cleavage values is the RNAGym collection of RNA variant scans (doi:10.1093/nar/gkz1192).

The source gives no read counts; variants with many changes may rest on few reads.

B1: CPEB3 Ribozyme (parent)
chain: UAACAGGGGGCCACAGCAGAAGCGUUCACGUCGCAGCCCCUGUCAGAUUCUGGUGAAUCUGCGAAUUCUGCUGUAUAUCUC

Variants of B1 are the subject of this series. As to the kind of experiment: self-cleavage, relative activity (ratio to wild type); higher = more cleavage; in vitro, sequencing. An outline of the steps:
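Libraries of CPEB3 self-cleaving ribozyme mutants came from rounds of error-prone PCR and carried barcodes, which DNA sequencing matched to variants. In vitro transcription used T7 RNA polymerase at 37°C for 5 hours, with a further 15 min in DNase I before EDTA stopped the reaction; the ribozymes cleaved during both steps. The RNA was reverse transcribed with template switching and sequenced on Illumina. Relative activity is the cleaved/total read fraction of a variant divided by that of the unmutated ribozyme, averaged over three batches with at least 5 reads.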
For the variant UAACAGGGGGCCACAGCAGAAGCGUUCACGUCGCAGCCUCUGUCAGAUUCUGGUGAAUCUGCGAAUUCCGCUGCAUAUCUC [C39U U69C U74C], the self-cleavage came out at 0.41. UAACAGGGGGCCACAGCAGAAGCGUUCACGUCGCAGCCUCUGUCAGAUUCUGGUGAAUCUGCGGAUUCUGCUGUAUACCUC [C39U A64G U78C]: the self-cleavage amounted to 0.25. For UAACAGGGGGCCACAGCAGAAGCGUUCACGUCGCAGCCUCUGUCAGUUUCUGGUGAAUCGGCGAAUUCUGCUGUAUAUCUC [C39U A47U U60G], the self-cleavage worked out at 0.37.

As to UAACAGGGGGCCACAGCAGAAGCGUUCACGUCGCAGCCCUUGUCAGAUACUGGUGGAUCUGCGUAUUCUGCCGUAUAUCUC [C40U U49A A56G A64U U72C], the self-cleavage worked out at 0.1.

With UAACAGGGGGCCACAGCAGAAGCGUUCACGUCGCAGCCCAUGUCAAAUUCUGGUGAAUCUGCGAAUUCUGCUAUAUAUCUC [C40A G46A G73A], the self-cleavage was determined as 0.38. UAACAGGGGGCCACAGCAGAAGCGUUCACGUCGCAGCCGCUGUCAGGUUCUGGUGAAUCUGCGAUUUCUGCUGUAUAUCUC [C39G A47G A65U]: the self-cleavage was found to be 0.2.

Regarding UAACAGGGGGCCACAGCAGAAGCGUUCACGUCGCAGCCUCUGUCGGAAUCUGGUGAAUCUGCGAAUUCUGCUGUAUAUCUC [C39U A45G U48A], the self-cleavage was 0.21. Consider UAACAGGGGGCCACAGCAGAAGCGUUCACGUCGCAGCCCUUGUCAGAUUCUGGUGAAUCUGCGAGUUCUGCCGGAUAUCUC [C40U A65G U72C U74G], for which the self-cleavage was found to be 0.24. As for UAACAGGGGGCCACAGCAGAAGCGUUCACGUCGCAGCCACUGUCAGAAUCUGGUGAAUCCGCGAAUUCUGCUGUAUAUCUC [C39A U48A U60C], the self-cleavage turned out to be 0.18. With UAACAGGGGGCCACAGCAGAAGCGUUCACGUCGCAGCCCUUGUCGGGUUCUGGUGAAUCUGCGUAUUCUGCUGUAUAUCUC [C40U A45G A47G A64U] the figure was 0.09.

Regarding UAACAGGGGGCCACAGCAGAAGCGUUCACGUCGCAGCCCUUGUCUGACUCUGGUGAAUCUGCGAAUCCUGCUGUAUAUCUC [C40U A45U U48C U67C], the self-cleavage is 0.09. Take UAACAGGGGGCCACAGCAGAAGCGUUCACGUCGCAGCCCAUGUCAGAUUCUGGAGGAUCUGCGAAUUCUGCUGUAUAUCUC [C40A U54A A56G]: the self-cleavage turned out to be 0.22. With UAACAGGGGGCCACAGCAGAAGCGUUCACGUCGCAGCCCUUGUCAGAUUCUGGUGAGUCUGCGAAUCCGGCUGUAUAUCUC [C40U A57G U67C U69G], the self-cleavage came to 0.14. With UAACAGGGGGCCACAGCAGAAGCGUUCACGUCGCAGCCACUGUCAGAUUCUGGUGAAUCUGCGUACUCUGCUGUAUAUCUC [C39A A64U U66C], the self-cleavage turned out to be 0.16. With UAACAGGGGGCCACAGCAGAAGCGUUCACGUCGCAGCCCUUGUCAGAUCCUGGUGAAUCUGCGAAUUCUGCUGUAUGUCUC [C40U U49C A77G], the self-cleavage was 0.3. As to UAACAGGGGGCCACAGCAGAAGCGUUCACGUCGCAGCCCUUGUCAGAUUCUGGUGAGUCUGCGAAUUCGGCUGUAUAUCUC [C40U A57G U69G], the self-cleavage is 0.53.

As to UAACAGGGGGCCACAGCAGAAGCGUUCACGUCGCAGCCCUUGUCAGAUUCUGGUAAAUCUGCGAGUUCUGCUGUAUAUCUC [C40U G55A A65G], the self-cleavage was found to be 0.41. As for UAACAGGGGGCCACAGCAGAAGCGUUCACGUCGCAGCCCUUGUCAGAUUCUGGUGUAUCCGCGAAUCCUGCUGUAUAUCCC [C40U A56U U60C U67C U80C], the self-cleavage was 0.16.

On to UAACAGGGGGCCACAGCAGAAGCGUUCACGUCGCAGCCCAUGUCAGAUUCUGGUGAAUCAGCGAAUUCGGCUGUAUAUCUC [C40A U60A U69G], for which the self-cleavage was 0.08. Turning to UAACAGGGGGCCACAGCAGAAGCGUUCACGUCGCAGCCCUUGUCAGAUUCCGGUGAGUCUGCGGAUUCUGCUGUAUAUCUC [C40U U51C A57G A64G], the self-cleavage came out at 0.38. In the case of UAACAGGGGGCCACAGCAGAAGCGUUCACGUCGCAGCCCUUGUCAGAUCCUGGUGAAUCUGCGAAUUCUGCUGUAUAUCAC [C40U U49C U80A], the self-cleavage came out at 0.4.

Consider UAACAGGGGGCCACAGCAGAAGCGUUCACGUCGCAGCCCACGUCAGAUUCUGGUGUAUCUGCGAAUUCAGCCGUAUAUCUC [C40A U41C A56U U69A U72C], for which the self-cleavage stood at 0.08. With UAACAGGGGGCCACAGCAGAAGCGUUCACGUCGCAGCCUCUGUCAGAUUCUGGUGAAUCUGCAAAUUCUGCUGUAUACCUC [C39U G63A U78C] the figure was 0.26; with UAACAGGGGGCCACAGCAGAAGCGUUCACGUCGCAGCCCUUGACAGAUUCUGGUGAAUCUGCGAAUUCUGCAGUAUAUCUC [C40U U43A U72A], 0.24. For UAACAGGGGGCCACAGCAGAAGCGUUCACGUCGCAGCCCAUGUCAGAUUCUGGUGAAUCUACGGAUUCUGCUGUAUAUCUC [C40A G61A A64G], the self-cleavage turned out to be 0.14. As to UAACAGGGGGCCACAGCAGAAGCGUUCACGUCGCAGCCCAAGUCAGAUUCUGGUGAAUCAGCGAAUUCUGCAGUAUAUCUC [C40A U41A U60A U72A], the self-cleavage worked out at 0.15. With UAACAGGGGGCCACAGCAGAAGCGUUCACGUCGCAGCCCAUGACAGAUCCUGGUGGAUCUGCGAAUUCUGCUGUAUAUCUC [C40A U43A U49C A56G] the figure was 0.18. UAACAGGGGGCCACAGCAGAAGCGUUCACGUCGCAGCCCCAGUCGGAUUCUGGCGAAUCUGCGAAUUCGGCUGUAUAACUC [U41A A45G U54C U69G U78A]: the self-cleavage was determined as 0.05.

For the variant UAACAGGGGGCCACAGCAGAAGCGUUCACGUCGCAGCCCUUGUCAGAUUCUGGUGAAUCUGCGAAUUCUGCAGCAUAUCCC [C40U U72A U74C U80C], the self-cleavage came out at 1.15. Take UAACAGGGGGCCACAGCAGAAGCGUUCACGUCGCAGCCUCUGUCAGAUUCUGGUGAAUCUGCGAAUUCCGCUGUAUACCUC [C39U U69C U78C]: the self-cleavage was found to be 0.53. Regarding UAACAGGGGGCCACAGCAGAAGCGUUCACGUCGCAGCCACUGUCAGAUUCUGGUGAAUCUGCCAACUCUGCUGUAUAUAUC [C39A G63C U66C C79A], the self-cleavage stood at 0.14. With UAACAGGGGGCCACAGCAGAAGCGUUCACGUCGCAGCCCUUAUCAGAUUCUGGUGAAUCUGCGAAUUCUGCUGUAUAUCAC [C40U G42A U80A] the figure was 0.35; with UAACAGGGGGCCACAGCAGAAGCGUUCACGUCGCAGCCCGCGCCAGAUUCUGGUGAGUCCGCGAAUUCUGCUGUAUAUCUC [C40G U41C U43C A57G U60C], 0.13. As for UAACAGGGGGCCACAGCAGAAGCGUUCACGUCGCAGCCCAUGUCUGAUUCUGGUGAAUCUGCGAAUUCUGCUGUAUAUCAC [C40A A45U U80A], the self-cleavage was determined as 0.27.
